Reference: the supplement of paper PMC3334620
Whole data set: some 33,000 sequences, median “E-score (-0.5 to 0.5)” near -0.054, cut for the highest 2% near 0.35. This is one part of the list.

target: T1, Stb5 (UniProt P38699); experiment: PBM E-score (8-mer binding enrichment) (E-score (-0.5 to 0.5)); higher = stronger / more preferred TF binding; most listed sequences are background and not binding sites; conditions: protein concentration: 200 nM; construct: GST-full length
T1 sequence: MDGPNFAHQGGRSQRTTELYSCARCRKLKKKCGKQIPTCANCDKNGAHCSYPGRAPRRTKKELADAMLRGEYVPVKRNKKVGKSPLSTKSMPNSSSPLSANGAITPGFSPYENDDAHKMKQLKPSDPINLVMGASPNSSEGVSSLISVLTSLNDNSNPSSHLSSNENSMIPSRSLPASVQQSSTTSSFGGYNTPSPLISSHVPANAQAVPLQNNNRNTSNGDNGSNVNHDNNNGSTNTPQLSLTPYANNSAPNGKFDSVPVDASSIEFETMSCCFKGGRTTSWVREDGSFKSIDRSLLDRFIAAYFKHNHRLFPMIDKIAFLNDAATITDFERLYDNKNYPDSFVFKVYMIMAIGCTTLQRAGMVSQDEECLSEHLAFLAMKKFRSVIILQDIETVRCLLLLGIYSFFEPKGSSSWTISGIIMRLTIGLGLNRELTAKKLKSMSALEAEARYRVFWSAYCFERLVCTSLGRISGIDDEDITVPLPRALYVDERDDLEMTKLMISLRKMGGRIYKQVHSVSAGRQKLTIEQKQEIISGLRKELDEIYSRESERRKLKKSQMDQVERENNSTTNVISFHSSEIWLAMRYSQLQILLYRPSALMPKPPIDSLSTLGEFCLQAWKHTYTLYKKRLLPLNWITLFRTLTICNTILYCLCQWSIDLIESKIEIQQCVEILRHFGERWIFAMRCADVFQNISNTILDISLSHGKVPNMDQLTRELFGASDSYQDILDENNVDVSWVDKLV
Summary of the method: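 Universal all-10-mer Agilent arrays, double-stranded by primer extension on fresh or once-stripped slides, were probed with about 100-200 nM GST-tagged yeast transcription factors made by PURExpress. Fluorescent anti-GST detected bound protein, and masliner normalised the scans. E-scores from the Universal PBM Analysis Suite were given to each ungapped eight-base word pooled with its reverse complement.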

Row | Sequence | PBM E-score
1 | CCCAGAGG | -0.0976
2 | ATCCGAAG | 0.0691
3 | AGGCGCAA | -0.0175
4 | TTCCGCAA | 0.155
5 | ATATCCCG | 0.275
6 | CCTCGTGC | 0.0262
7 | CAAGCGAC | -0.0397
8 | GCTTAGCA | 0.0208
9 | ACTCATAG | -0.0888
10 | CCTCGGAA | -0.0398
11 | GCACTAGA | -0.0524
12 | ATACGTTA | -0.217
13 | AACGATAG | -0.0898
14 | ATCAGAGC | -0.0152
15 | CTAGCCCC | 0.256
16 | ACCCTCTA | -0.276
17 | ATCCGGAA | 0.139
18 | AACGACAC | -0.0467
19 | ATAGTCCC | 0.314
20 | AACTGCGT | -0.00018
21 | ACATGGAT | -0.173
22 | AAAATTAT | 0.114
23 | CATCTTTA | 0.0279
24 | ATCTTCAT | -0.0151
25 | CTTGTTTC | -0.262

Row | Sequence | PBM E-score
26 | GATGAACA | -0.0449
27 | CTCCTCAC | -0.203
28 | GTAGTCCA | -0.0248
29 | GCGCGGCA | 0.237
30 | TACCGTAA | 0.233
31 | AAAGGGTC | -0.0495
32 | AGGGCACG | 0.00251
33 | GCTATCGA | -0.106
34 | TCAACACA | -0.297
35 | AGTCCAAT | -0.041
36 | CTCAATAA | -0.0345
37 | CCCGGTAC | 0.263
38 | CCTGCACA | -0.243
39 | ATGCATAA | -0.175
40 | CTTGGTGC | -0.145
41 | ATGCATCC | -0.104
42 | GAATCCTA | -0.12
43 | CTAGGGCA | -0.149
44 | AGTCTCGC | -0.249
45 | AAAGCCTA | -0.183
46 | TCTCTTCA | -0.0422
47 | TAGGTGAA | -0.0434
48 | ATGTGTTA | -0.227
49 | CTCCCCAG | -0.131
50 | GCGACCAA | -0.153

Row | Sequence | PBM E-score
51 | CGCGTAAA | 0.0087
52 | AACGGCAA | 0.107
53 | CATTCATA | 0.0938
54 | ACCCTAAG | -0.227
55 | CACAGAAA | -0.181
56 | CCCAAGTC | -0.175
57 | CGGCATAA | 0.343
58 | GACTATGA | -0.115
59 | CCTCTCAC | -0.254
60 | TTAACCAA | -0.0609
61 | GAAACGCA | -0.0286
62 | CTCAGGGC | -0.0544
63 | CTGCCTCC | -0.0731
64 | TCCCTACA | -0.00245
65 | AAGCCGGG | 0.142
66 | AAAGGGGC | -0.00863
67 | GAATACCA | -0.0851
68 | GTAGGAAC | -0.15
69 | CGTTGTGA | 0.0146
70 | CTTCCGCA | 0.0499
71 | CTATGGAA | -0.0819
72 | CTGGAAAG | -0.174
73 | ACATATCA | 0.0289
74 | CGAGTGGC | -0.104
75 | CAAACATG | -0.252

Row | Sequence | PBM E-score
76 | ACCTTGGC | -0.144
77 | AGCCAAAA | -0.119
78 | CACAATAC | 0.0242
79 | ACGTCGTC | -0.0716
80 | TGCGTCCA | -0.235
81 | AGTTCGTA | -0.117
82 | CTTGGTTC | -0.0545
83 | AAAAAAAT | 0.0106
84 | CTCAGAGC | -0.269
85 | GAAAACGA | 0.00708
86 | TGGTAACA | -0.127
87 | AAATTACC | 0.222
88 | AGAGTAGC | -0.262
89 | GAGAAAAC | -0.0483
90 | ATAATTGG | 0.0971
91 | ATATGAAA | -0.119
92 | AATATAGT | -0.0475
93 | TCCGACCA | 0.3
94 | CTGCAGTC | -0.244
95 | TATCAGAA | 0.0358
96 | ATGAGTTC | -0.113
97 | ATAACCGG | 0.213
98 | AGACTATG | -0.119
99 | GTATTATA | 0.286
100 | AGATGTCG | -0.0177

Row | Sequence | PBM E-score
101 | ACCCGCGA | 0.115
102 | AACTCGGG | 0.145
103 | AGGCGGCA | 0.238
104 | CCTAAGAC | 0.0703
105 | GGCAACCC | -0.0389
106 | CATGGTCG | 0.159
107 | AACACATT | -0.0546
108 | CAACACTA | -0.163
109 | GAAATGGA | -0.131
110 | ACTATGCT | -0.0393
111 | AGTTGTCG | 0.127
112 | TTAAATAA | 0.151
113 | TCGCGCAA | -0.136
114 | ACAAGGCG | -0.0784
115 | ATCCGTAA | 0.0101
116 | CAGGAATG | -0.384
117 | CGTGGAGC | 0.0703
118 | CGCGCCTA | 0.216
119 | GAGCAGAA | 0.1
120 | TGAGTAAA | -0.129
121 | ACTTGGAT | -0.199
122 | GGATAGGA | -0.00719
123 | GAGGGCGC | 0.0133
124 | GGAGAGCA | -0.154
125 | CATAGATG | -0.0624

Row | Sequence | PBM E-score
126 | GACGCAGA | -0.0333
127 | GGAAGGAC | -0.0635
128 | GAGTTAAA | 0.0373
129 | AATCGTTC | -0.166
130 | ATCTGAAG | -0.254
131 | AGTTGATG | -0.212
132 | CCTGGGTC | -0.0597
133 | AAGTACAG | -0.204
134 | CGCAGCAA | -0.192
135 | AAATTGCT | -0.183
136 | GGGCGCTA | 0.0264
137 | ATCCCAAG | -0.0561
138 | ACCCACAC | -0.0635
139 | TGTCTAAA | -0.0274
140 | CGTCCAAG | -0.0248
141 | ATCTTATC | -0.0213
142 | CCACAGTA | -0.229
143 | ACGGGCAG | -0.0575
144 | GAGATTAA | -0.142
145 | ATTTGTTA | -0.0737
146 | AGAGGCTC | -0.00769
147 | CATTAATG | -0.0431
148 | GGGACTAC | 0.144
149 | AATATGCC | 0.187
150 | CTTGGTAC | 0.0786

Row | Sequence | PBM E-score
151 | CTGATTAA | 0.0693
152 | CTTTTCAC | -0.11
153 | CAGTAATA | 0.0883
154 | CGAGCGGA | 0.385
155 | CAATGCAC | -0.142
156 | CAAGGTGG | -0.0922
157 | CACAACGA | 0.0581
158 | CGCTGCCC | -0.0156
159 | CCTTGTGA | -0.0236
160 | CGGTTTCA | 0.245
161 | AGAAATTC | -0.133
162 | ACCACCAC | 0.0235
163 | AGCTAAGG | -0.223
164 | AAATCGCA | -0.0561
165 | GCAGATTA | -0.0933
166 | CAGTGCCG | 0.23
167 | CGGGGTAG | 0.191
168 | AATTATTC | 0.0099
169 | CAGAGAGA | -0.3
170 | AAATCCAA | -0.153
171 | ATAACTGG | 0.081
172 | GAAGGAGA | -0.143
